The GPR68 mutational scans of Howard et al. (2025)
The least precise scores are not listed. The source holds two more conditions with little spread; they are left out. Read del as a deletion of the residues named and ins as an insertion between two positions. For some of these results: How much ogerin was present is not stated here.

B1: GPR68, Q15743 (parent)
chain: MGNITADNSSMSCTIDHTIHQTLAPVVYVTVLVVGFPANCLSLYFGYLQIKARNELGVYLCNLTVADLFYICSLPFWLQYVLQHDNWSHGDLSCQVCGILLYENIYISVGFLCCISVDRYLAVAHPFRFHQFRTLKAAVGVSVVIWAKELLTSIYFLMHEEVIEDENQHRVCFEHYPIQAWQRAINYYRFLVGFLFPICLLLASYQGILRAVRRSHGTQKSRKDQIQRLVLSTVVIFLACFLPYHVLLLVRSVWEASCDFAKGVFNAYHFSLLLTSFNCVADPVLYCFVSETTHRDLARLRGACLAFLTCSRTGRAREAYPLGAPEASGKSGAQGEEPELLTKLHPAFQTPNSPGSGGFPTGRLA

Assays:
[1] = variants of: B1; test: cAMP reporter score (Enrich2 score, wild type = 0); higher = more signal; HEK293T, FACS bins
[2] = variants of: B1; test: surface expression score (Enrich2 score, wild type = 0); higher = more signal; HEK293T, FACS bins

Variant | cAMP reporter score ([1]; pH 5.5) | cAMP reporter score ([1]; pH 6) | cAMP reporter score ([1]; pH 6, modulator: ogerin) | cAMP reporter score ([1]; pH 6.5, modulator: ogerin) | surface expression score [2]
Q182P | -1.66 | -1.23 | -0.929 | -1.18 | -0.261
Q182R | 1.27 | 4.79 | -0.189 | 3.64 | -0.6
Q182S | -0.388 | -0.43 | -1.02 | – | 0.874
Q182T | 0.248 | 0.065 | 0.199 | -0.837 | 0.14
Q182V | 1.47 | 0.072 | 0.147 | -0.739 | -0.613
Q182W | -1.09 | 0.432 | – | -0.3 | -0.053
Q182Y | -0.233 | -0.142 | -0.796 | -0.21 | -0.273
Q182_R183insG | 0.07 | -0.284 | -0.527 | -0.137 | -0.438
R183A | 0.241 | – | 0.063 | 1.72 | -0.732
R183C | 0.306 | 1.08 | 1.02 | 1.4 | –
R183D | -1.27 | -0.92 | – | -2.96 | -1.72
R183E | -1.17 | – | -0.317 | -0.152 | -2.15
R183F | -0.092 | 0.159 | -0.91 | -0.054 | -0.586
R183G | -0.369 | -0.084 | -0.009 | -1.18 | -1.34
R183I | 1 | 1.19 | -0.202 | – | -1.33
R183K | 1.45 | – | 0.935 | 2.42 | 0.926
R183L | -0.38 | -0.215 | -0.831 | 0.138 | 0.082
R183M | 0.619 | – | -0.868 | -0.41 | -0.981
R183N | -0.383 | 1.19 | -0.18 | – | -1.36
R183P | 0.911 | -0.169 | -1.22 | -0.235 | -0.479
R183Q | 0.499 | -1.16 | 0.664 | 0.276 | -0.074
R183S | -0.755 | 1.45 | -0.578 | 0.606 | -0.545

Variant | cAMP reporter score ([1]; pH 5.5) | cAMP reporter score ([1]; pH 6) | cAMP reporter score ([1]; pH 6, modulator: ogerin) | cAMP reporter score ([1]; pH 6.5, modulator: ogerin) | surface expression score [2]
R183T | -0.942 | -0.961 | -1.27 | -1.17 | -1.38
R183V | -0.626 | – | -0.06 | – | -0.594
R183W | -0.352 | – | -0.795 | -1.12 | -3.05
R183_A184insG | -0.069 | 0.009 | -0.835 | -0.484 | –
R183_I185del | -1.94 | -1.34 | -1.93 | -1.82 | -1.52
A184C | 1.98 | – | 1.75 | 0.125 | –
A184D | 0.099 | 0.535 | -0.242 | -0.081 | -0.43
A184E | 1.86 | – | 1.67 | 0.456 | -0.804
A184F | -0.146 | -1.06 | 0.025 | -0.961 | -0.584
A184H | 1.03 | 1.15 | 0.842 | 2.43 | 1.5
A184I | 0.733 | – | -0.449 | -0.438 | –
A184K | 2.23 | 3.59 | 0.997 | 3.91 | 2.57
A184L | -0.053 | -0.336 | 0.076 | -0.639 | -1.03
A184M | 0.115 | -1.15 | -0.153 | -0.882 | -0.998
A184N | 1.54 | – | 0.854 | 0.573 | 0.598
A184P | 0.477 | 2.24 | 0.545 | 2.51 | 0.231
A184Q | -1.32 | -0.98 | -1.67 | -1.34 | -0.951
A184R | -0.819 | 1.06 | -0.232 | -0.066 | 0.328
A184S | -0.119 | -0.456 | -0.288 | 0.195 | -0.362
A184T | 0.753 | -0.415 | 0.847 | 0.357 | 1.06
A184V | 0.658 | -0.56 | 0.1 | 0.066 | -0.642
A184W | -0.464 | – | -1.93 | 0.632 | -2.31

Variant | cAMP reporter score ([1]; pH 5.5) | cAMP reporter score ([1]; pH 6) | cAMP reporter score ([1]; pH 6, modulator: ogerin) | cAMP reporter score ([1]; pH 6.5, modulator: ogerin) | surface expression score [2]
A184Y | -0.72 | – | -0.567 | 0.443 | -0.914
A184_I185del | -1.27 | -1.16 | -1.43 | -1.23 | -2.17
A184_I185insG | -1.6 | – | -1.55 | -0.563 | -1.45
A184_N186del | -1.56 | -1.61 | -1.2 | -1.63 | -1.37
I185A | 1.72 | 0.028 | 0.681 | 0.854 | 1.87
I185C | -0.986 | – | – | -0.627 | -1.01
I185D | -1.28 | -0.585 | -0.477 | -2.1 | –
I185E | -0.959 | -1.42 | – | -2.06 | 0.04
I185F | -1.06 | -0.328 | -1.6 | -1.25 | 1.02
I185G | -0.736 | -1.61 | -0.286 | 0.215 | -0.824
I185K | -1.73 | -1.22 | -1.82 | -1.4 | 0.162
I185L | 0.925 | 0.192 | -0.18 | -0.343 | 1.23
I185M | -0.059 | -0.196 | -0.53 | -1.29 | 0.465
I185N | -1.27 | -0.364 | -1.11 | – | -0.587
I185P | 0.818 | 0.416 | 0.536 | 0.102 | -1.13
I185Q | -1.04 | -0.655 | -1.03 | -0.391 | 1.54
I185R | -0.801 | -0.647 | -2.52 | -1.07 | 0.873
I185S | 0.438 | -0.378 | 0.493 | -0.111 | 0.099
I185T | 0.099 | -0.209 | -0.706 | -0.938 | 0.638
I185V | 0.666 | -0.943 | 0.566 | -0.706 | 1.21
I185W | 0.958 | – | – | -0.587 | 2.73
